Results published in a compilation of properties of binary mixtures (doi:10.1016/j.molliq.2022.119918).
Some of these densities may be calculated back from excess volumes.

Experiment: xn = mol fraction of the nth substance listed
Conditions: 100 kPa

CS(C)=O + COCCCC[n+]1ccn(C)c1.NCC(=O)[O-]
x2 = 0
Conditions | mass density [kg/m3]
288.15 K | 1105.2
293.15 K | 1100.3
298.15 K | 1095.2
303.15 K | 1090.2
313.15 K | 1080.2
318.15 K | 1075.2

COCCCC[n+]1ccn(C)c1.NCC(=O)[O-] + CS(C)=O
mass density [kg/m3]
Conditions | x1 = 0.1009 | x1 = 0.1984 | x1 = 0.299 | x1 = 0.3986 | x1 = 0.4986 | x1 = 0.6006 | x1 = 0.701 | x1 = 0.7941 | x1 = 0.907 | x1 = 1
288.15 K | 1140.5 | 1151.1 | 1154.6 | 1157 | – | 1162.9 | 1165.1 | 1166.1 | 1167 | 1168.8
293.15 K | 1135.8 | 1146.9 | 1150.7 | 1153.4 | – | – | 1161.6 | – | 1163.8 | 1165.4
298.15 K | 1131.7 | 1142.6 | 1146.7 | 1149.6 | 1152.6 | 1155.9 | 1158.1 | – | 1160.2 | –
303.15 K | – | 1138.5 | – | 1145.7 | 1149.1 | 1152.3 | 1154.7 | 1155.8 | 1156.7 | 1158.3
308.15 K | – | 1134.2 | – | 1141.9 | 1145.4 | 1148.7 | – | 1152.3 | 1153.1 | 1154.7
313.15 K | 1118.1 | 1130 | 1134.8 | 1138 | 1141.7 | 1145.2 | 1147.8 | 1148.8 | 1149.5 | 1151
318.15 K | – | 1125.8 | 1130.6 | 1134.4 | 1138.2 | 1141.8 | 1144.3 | 1145.4 | 1145.8 | 1147.3

CC(N)C(=O)[O-].COCCCCn1cc[n+](C)c1 + CS(C)=O
mass density [kg/m3]
Conditions | x1 = 0.1009 | x1 = 0.1996 | x1 = 0.3012 | x1 = 0.3985 | x1 = 0.4922 | x1 = 0.5996 | x1 = 0.6966 | x1 = 0.7973 | x1 = 0.8997 | x1 = 1
288.15 K | 1139 | – | – | 1149.2 | 1150.6 | – | 1154.5 | 1156.1 | – | 1162.7
293.15 K | 1134.2 | – | – | 1145.6 | 1146.8 | 1149 | 1150.8 | 1152.5 | 1154.7 | –
298.15 K | 1129 | – | 1140.8 | 1141.7 | 1143.1 | 1145.4 | 1147.3 | 1149 | 1151.2 | 1155.5
303.15 K | 1124.5 | – | 1136.9 | 1138.1 | 1139.4 | – | 1143.7 | 1145.5 | 1147.7 | 1151.8
308.15 K | 1119.9 | 1129.9 | 1133 | – | 1135.7 | – | – | – | 1144.1 | 1148.2
313.15 K | 1115 | 1125.8 | 1128.6 | 1130.3 | 1131.9 | 1134.4 | – | 1138.4 | 1140.6 | 1144.5
318.15 K | – | 1121.5 | 1124.8 | 1126.5 | – | – | 1132.8 | – | 1137.1 | 1140.8

CS(C)=O + NC(C)C(=O)[O-].COCCCCN1C=[N+](C=C1)C
x2 = 0
Conditions | mass density [kg/m3]
288.15 K | 1105.2
293.15 K | 1100.3
298.15 K | 1095.2
303.15 K | 1090.2
313.15 K | 1080.2
318.15 K | 1075.2
